Source: patent US8669255B2, “Substituted octahydropyrrolo[1,2-a]pyrazines as calcium channel blockers” (AbbVie Inc., priority 2011, dated 2014)

molecular target: human Cav2.2 (Homo sapiens, UniProt Q00975); test: In vitro assessment of calcium channel activity using FLIPR (Ca2+ influx in IMR32 cells); format: cell-based; settings: IMR32 cells endogenously expressing human Cav2.2; 60 minute pre-incubation; 2 μM nifedipine; depolarized with 80 mM KCl; average of at least two runs unless marked (*)
Method: (i) In Vitro Assessment of Calcium Channel Activity Using FLIPR
The IMR32 cells were maintained in MEM media containing 10% (v/v) FBS, 1% (v/v) antibiotic/antimitotic, 1% (v/v) sodium pyruvate and 1% (v/v) MEM NEAA. Following dissociation in 0.05% (v/v) trypsin/EDTA, cells were seeded into black 1×96-well plates (Corning Cellbind) at a density of 1-1.2×10^5 cells/well and incubated in the maintenance media above for 48 hours at 37° C. Immediately prior to performing the assay the media was removed and cells were loaded for 1.5 hours with 1× Calcium 4 dye prepared in HBSS (137 mM NaCl, 5.4 mM KCl, 0.25 mM Na2HPO4, 0.44 mM KH2PO4, 1.3 mM CaCl2, 1 mM MgSO4, 4.2 mM NaHCO3) containing HEPES pH 7.4 at room temperature. After dye loading and a subsequent 60 minute pre-incubation with compounds (full log dilutions from 10 μM to 0.1 nM) in the presence of 1.3 mM CaCl2 and 2 μM nifedipine to block endogenous L-type channels, the external Ca^2+concentration was increased to 5 mM CaCl2 and the cells concomitantly depolarized with 80 mM KCl to assay channel activity. To determine the IC50 values, the percent inhibition of the compound at each concentration was determined relative to the activity in the absence of inhibitor, and data was fitted using non-linear regression sigmoidal dose response curve analysis with GraphPad Prism®. Unless otherwise indicated (*), the reported values are average values from at least two runs (i.e., n≧2).

IC50 [nM] | Compound
3690 | FC(F)(F)c1ccnc(N[C@H]2C[C@H]3CN(c4ccc(Cl)cn4)CCN3C2)n1 [Example 35, (7S,8aS)-2-(5-chloropyridin-2-yl)-N-[4-(trifluoromethyl)pyrimidin-2-yl]-octahydropyrrolo[1,2-a]pyrazin-7-amine]
330 | CN(C)C(C(=O)N1CCN2C[C@H](Oc3cnc(C4CC4)cn3)C[C@H]2C1)c1cccc(C(F)(F)F)c1 (stereo partly drawn) [Example 175, 1-[(7R,8aS)-7-[(5-cyclopropylpyrazin-2-yl)oxy]hexahydropyrrolo[1,2-a]-pyrazin-2(1H)-yl]-2-(dimethylamino)-2-[3-(trifluoromethyl)phenyl]ethanone]
2630 | O=C1CN2C[C@H](Oc3cnc(C4CC4)cn3)C[C@H]2CN1Cc1cccc(C(F)(F)F)c1 [Example 201, (7R,8aS)-7-[(5-cyclopropylpyrazin-2-yl)oxy]-2-[3-(trifluoromethyl)-benzyl]hexahydropyrrolo[1,2-a]pyrazin-3(4H)-one]
9960 | O=C(c1ccc(F)cc1C(F)(F)F)N1CCN2C[C@H](Oc3cnc(C4CC4)cn3)C[C@H]2C1 [Example 77, [(7R,8aS)-7-[(5-cyclopropylpyrazin-2-yl)oxy]hexahydropyrrolo[1,2-a]-pyrazin-2(1H)-yl][4-fluoro-2-(trifluoromethyl)phenyl]methanone]
1690 | O=C(c1cccc(C2CC2)c1)N1CCN2C[C@H](Oc3cnc(C4CC4)cn3)C[C@H]2C1 [Example 121, (3-cyclopropylphenyl) [(7R,8aS)-7-[(5-cyclopropylpyrazin-2-yl)oxy]-hexahydropyrrolo[1,2-a]pyrazin-2(1H)-yl]methanone]
1830 | O=S(=O)(Cc1ccc(Cl)cc1)N[C@@H]1CCN2CCN(c3cccc(C(F)(F)F)n3)C[C@@H]12 (relative stereo) [Example 96, 1-(4-chlorophenyl)-N-{(8R*,8aS*)-2-[6-(trifluoromethyl)pyridin-2-yl]-octahydropyrrolo[1,2-a]pyrazin-8-yl}methanesulfonamide]
2270 | O=C([C@@H](NC(=O)C(F)(F)F)c1cccc(C(F)(F)F)c1)N1CCN2C[C@H](Oc3cnc(C4CC4)cn3)C[C@H]2C1 [Example 211, N-{(1S)-2-[(7R,8aS)-7-[(5-cyclopropylpyrazin-2-yl)oxy]hexahydro-pyrrolo[1,2-a]pyrazin-2(1H)-yl]-2-oxo-1-[3-(trifluoromethyl)phenyl]ethyl}-2,2,2-trifluoroacetamide]
2460 | O=C1[C@@H]2C[C@@H](Oc3cnc(C4CC4)cn3)CN2CCN1Cc1ccc(C(F)(F)F)cc1 (single isomer, unassigned) [Example 166]
2670 | O=C(N[C@@H]1CCN2CCN(c3cccc(C(F)(F)F)n3)C[C@H]12)c1cccc(F)c1 (relative stereo) [Example 99, 3-fluoro-N-{(8R*,8aR*)-2-[6-(trifluoromethyl)pyridin-2-yl]octahydro-pyrrolo[1,2-a]pyrazin-8-yl}benzamide]
330 | CC(Oc1cccc(C(F)(F)F)c1)C(=O)N1CCN2C[C@H](Oc3cnc(C4CC4)cn3)C[C@H]2C1 (stereo partly drawn) [Example 156, 1-[(7R,8aS)-7-[(5-cyclopropylpyrazin-2-yl)oxy]hexahydropyrrolo[1,2-a]-pyrazin-2(1H)-yl]-2-[3-(trifluoromethyl)phenoxy]propan-1-one]
> 30000 | CC(C)(C)OC(=O)N1CCN2C[C@@H](NC(=O)c3ccc(F)cc3)C[C@H]2C1 [Example 1, tert-butyl (7S,8aS)-7-[(4-fluorobenzoyl)amino]hexahydropyrrolo[1,2-a]pyrazine-2(1H)-carboxylate]
3830 | O=C(c1cccc(C(F)(F)F)c1)N1CCN2C[C@@H](Nc3ccc(Cl)cn3)C[C@H]2C1 [Example 31, [(7S,8aS)-7-[(5-chloropyridin-2-yl)amino]hexahydropyrrolo[1,2-a]pyrazin-2(1H)-yl][3-(trifluoromethyl)phenyl]methanone]
3670 | O=C(c1cccc(C(F)(F)F)c1)N1CCN2CC[C@@H](Oc3ccc(Cl)cn3)[C@H]2C1 (relative stereo) [Example 101, [(8R*,8aR*)-8-[(5-chloropyridin-2-yl)oxy]hexahydropyrrolo[1,2-a]pyrazin-2(1H)-yl][3-(trifluoromethyl)phenyl]methanone]
4230 | O=C(c1ccc(Cl)cc1)N1CCN2C[C@@H](Nc3ccc(C(F)(F)F)cn3)C[C@H]2C1 [Example 25, (4-chlorophenyl)[(7S,8aS)-7-{[5-(trifluoromethyl)pyridin-2-yl]amino}-hexahydropyrrolo[1,2-a]pyrazin-2(1H)-yl]methanone]
1380 | O=C(c1cc(Cl)cc(OC(F)(F)F)c1)N1CCN2C[C@H](Oc3cnc(C4CC4)cn3)C[C@H]2C1 [Example 137, [3-chloro-5-(trifluoromethoxy)phenyl][(7R,8aS)-7-[(5-cyclopropylpyrazin-2-yl)oxy]hexahydropyrrolo[1,2-a]pyrazin-2(1H)-yl]methanone]
4290 | O=C(N[C@H]1C[C@H]2CN(C(=O)c3ccc(Cl)c(F)c3)CCN2C1)c1cccc(C(F)(F)F)c1 [Example 15, N-[(7S,8aS)-2-(4-chloro-3-fluorobenzoyl)octahydropyrrolo[1,2-a]pyrazin-7-yl]-3-(trifluoromethyl)benzamide]
2350 | FC(F)(F)c1cccc(N[C@H]2C[C@H]3CN(c4cccc(C(F)(F)F)n4)CCN3C2)n1 [Example 39, (7S,8aS)-N,2-bis[6-(trifluoromethyl)pyridin-2-yl]octahydropyrrolo[1,2-a]-pyrazin-7-amine]
530 | CCNC(C(=O)N1CCN2C[C@H](Oc3cnc(C4CC4)cn3)C[C@H]2C1)c1ccc(C(F)(F)F)cc1 (stereo partly drawn) [Example 194, 1-[(7R,8aS)-7-[(5-cyclopropylpyrazin-2-yl)oxy]hexahydropyrrolo[1,2-a]-pyrazin-2(1H)-yl]-2-(ethylamino)-2-[4-(trifluoromethyl)phenyl]ethanone]
4740 | O=C(c1ccc(Cl)cc1)N1CCN2C[C@@H](Nc3cccc(C(F)(F)F)n3)C[C@H]2C1 [Example 26, (4-chlorophenyl)[(7S,8aS)-7-{[6-(trifluoromethyl)pyridin-2-yl]amino}-hexahydropyrrolo[1,2-a]pyrazin-2(1H)-yl]methanone]
5900 | O=C(N[C@H]1C[C@H]2CN(C(=O)c3ccc(Cl)cc3)CCN2C1)c1cccc(C(F)(F)F)c1 [Example 10, N-[(7S,8aS)-2-(4-chlorobenzoyl)octahydropyrrolo[1,2-a]pyrazin-7-yl]-3-(trifluoromethyl)benzamide]
750 | O=C(C(N=CC(F)(F)F)c1ccc(C(F)(F)F)cc1)N1CCN2C[C@H](Oc3cnc(C4CC4)cn3)C[C@H]2C1 (stereo partly drawn) [Example 198, 1-[(7R,8aS)-7-[(5-cyclopropylpyrazin-2-yl)oxy]hexahydropyrrolo[1,2-a]-pyrazin-2(1H)-yl]-2-[(2,2,2-trifluoroethylidene)amino]-2-[4-(trifluoromethyl)-phenyl]ethanone]
14900 | CN[C@@H](CC(C)C)C(=O)N1CCN2C[C@H](Oc3cnc(C4CC4)cn3)C[C@H]2C1 [Example 184, (2S)-1-[(7R,8aS)-7-[(5-cyclopropylpyrazin-2-yl)oxy]hexahydropyrrolo[1,2-a]pyrazin-2(1H)-yl]-4-methyl-2-(methylamino)pentan-1-one]
2220 | O=C(C(O)c1ccc(C(F)(F)F)cc1)N1CCN2C[C@H](Oc3cnc(C4CC4)cn3)C[C@H]2C1 (stereo partly drawn) [Example 158, 1-[(7R,8aS)-7-[(5-cyclopropylpyrazin-2-yl)oxy]hexahydropyrrolo[1,2-a]-pyrazin-2(1H)-yl]-2-hydroxy-2-[4-(trifluoromethyl)phenyl]ethanone]
7940 | O=C(c1ccccc1C(F)(F)F)N1CCN2C[C@H](Oc3cnc(C4CC4)cn3)C[C@H]2C1 [Example 75, [(7R,8aS)-7-[(5-cyclopropylpyrazin-2-yl)oxy]hexahydropyrrolo[1,2-a]-pyrazin-2(1H)-yl][2-(trifluoromethyl)phenyl]methanone]
3020 | O=C(CCCC(F)(F)F)N1CCN2C[C@H](Oc3cccc(C(F)(F)F)n3)C[C@H]2C1 [Example 60, 5,5,5-trifluoro-1-[(7R,8aS)-7-{[6-(trifluoromethyl)pyridin-2-yl]oxy}-hexahydropyrrolo[1,2-a]pyrazin-2(1H)-yl]pentan-1-one]

Compound | IC50 [nM]
CC(C)(C)c1cccc(OC(=O)N2CCN3C[C@H](Oc4cnc(C5CC5)cn4)C[C@H]3C2)c1 [Example 120, 3-tert-butylphenyl (7R,8aS)-7-[(5-cyclopropylpyrazin-2-yl)oxy]hexahydro-pyrrolo[1,2-a]pyrazine-2(1H)-carboxylate] | 1100
O=C(COc1ccc(OC(F)(F)F)cc1)N1CCN2C[C@H](Oc3cnc(C4CC4)cn3)C[C@H]2C1 [Example 149, 1-[(7R,8aS)-7-[(5-cyclopropylpyrazin-2-yl)oxy]hexahydropyrrolo[1,2-a]-pyrazin-2(1H)-yl]-2-[4-(trifluoromethoxy)phenoxy]ethanone] | 1200
O=C(Oc1cc(Cl)cc(C(F)(F)F)c1)N1CCN2C[C@H](Oc3cnc(C4CC4)cn3)C[C@H]2C1 [Example 118, 3-chloro-5-(trifluoromethyl)phenyl (7R,8aS)-7-[(5-cyclopropylpyrazin-2-yl)oxy]hexahydropyrrolo[1,2-a]pyrazine-2(1H)-carboxylate] | 3290
